# Experimental data published in PubChem BioAssay AID624417 (National Center for Advancing Translational Sciences (NCATS), 2012).
# The campaign covered roughly 410,000 compounds. About 6,400 (1.6%) were called active. Inconclusive results, whose numbers are uncertain, are shown with a selection of clear calls. The call rests on the fitted dose curve; in most records, active means well fitted inhibition curve with a large enough effect; inconclusive means small, poorly fitted or top-dose-only effect; inactive means no such curve, though single readings can be large or run the other way. Potencies of inconclusive entries are left out as doubtful fits.
# Target: Glucagon-like peptide 1 receptor (Homo sapiens) (UniProt P43220)
# Experiment: qHTS of GLP-1 Receptor Inverse Agonists (Inhibition Mode); further: nearly all actives have a fitted effect of over 55% in size
# Details: HEK293 GLP-1R CRE-luciferase, luminescence, 24 h, GLP-1R form is constitutively active; activity change, negative = inhibition: at 38.3 µM (top of the series) unless noted
# Method in brief: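 Cells are plated, allowed 12 hours at 37 deg C, then treated with compounds for 24 hr before luciferase detection reagent is added and luminescence is read after 12 min at room temperature. The HEK293 line carries constitutively active GLP-1R with a cAMP-responsive reporter.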
# On the % scale 0 is the no-effect control and ±100 the full control effect; potency means the concentration at half of the fitted maximal effect; tags describe the fitted curve by direction and shape.
# Chain of UniProt P43220 (P43220 whole entry, looked up): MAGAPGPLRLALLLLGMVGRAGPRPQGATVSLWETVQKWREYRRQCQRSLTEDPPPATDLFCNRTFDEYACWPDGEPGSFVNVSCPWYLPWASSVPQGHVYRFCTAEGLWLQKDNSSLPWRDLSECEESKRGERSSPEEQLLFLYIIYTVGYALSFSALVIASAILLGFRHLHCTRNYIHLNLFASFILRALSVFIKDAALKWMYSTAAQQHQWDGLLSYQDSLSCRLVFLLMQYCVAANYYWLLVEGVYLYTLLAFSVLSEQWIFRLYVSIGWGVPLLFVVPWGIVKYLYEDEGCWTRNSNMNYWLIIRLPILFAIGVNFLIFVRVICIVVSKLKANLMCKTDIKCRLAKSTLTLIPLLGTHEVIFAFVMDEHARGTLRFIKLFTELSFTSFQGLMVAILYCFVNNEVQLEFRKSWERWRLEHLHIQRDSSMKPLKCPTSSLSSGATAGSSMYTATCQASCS
SMILES,Potency,"activity change, negative = inhibition"
CCC(c1nnnn1-c1c(C)cccc1C)N1CCN(C/C=C/c2ccccc2)CC1 (stereo not given),"inconclusive [inhibitor, single point]",–
CCOC(=O)c1ccc(N2C(=O)c3[nH]nc(-c4ccc(OC)cc4)c3C2c2ccc(C)cc2)cc1 (stereo not given),"inconclusive [inhibitor, partial curve, poor fit]",–
CC(=O)OC(C(=O)NC1CCCCC1)c1ccc(Cl)c(Cl)c1 (stereo not given),"inconclusive [inhibitor, single point]",–
O=C(NC1=NCCS1)c1cc(-c2ccc(F)cc2)nc2ccccc12,"inconclusive [inhibitor, single point]",–
CCc1ccc(NC(=O)c2cnn(-c3c(C)cccc3C)c2C2CCNCC2)cc1,"inconclusive [inhibitor, partial curve, poor fit]",–
CCn1c(C)cc(/C=C2/SC(=S)N(CC(=O)O)C2=O)c1C,"inconclusive [inhibitor, partial curve, poor fit]",–
Cc1ccc(S(=O)(=O)N2CCN(Cc3nc4ccccc4n3C)CC2)cc1,"inconclusive [inhibitor, single point]",–
COc1cccc(CSc2nnc(CSc3nc4nc(C)cc(C)n4n3)s2)c1,"inconclusive [inhibitor, single point]",–
Cc1ccc(C)c(OCCC(=O)Nc2cccc(S(=O)(=O)N3CCCC3)c2)c1,"inconclusive [inhibitor, single point]",–
Cc1cccc(C)c1NC(=O)C1(C)CN(S(C)(=O)=O)CC(=O)N1CCCN1CCOCC1 (stereo not given),–,inactive: -9.23%
O=C1C=C(Nc2ccc(Cl)cc2Cl)CC(c2ccco2)C1 (stereo not given),"inconclusive [inhibitor, single point]",–
CCOc1ccc(N/C(C)=C\C(=O)c2ccc3c(c2)OCCO3)cc1,"inconclusive [inhibitor, single point]",–
O=C(CCN1CCN(C/C=C/c2ccccc2)CC1)Nc1ccccc1,"inconclusive [inhibitor, single point]",–
COc1ccc(NC(=O)CSc2nc3c(c(=O)[nH]2)CN(Cc2ccccc2)CC3)cc1Cl,–,inactive: 14%
O=C(c1ccc(Cl)s1)N1CCc2ccccc21,"inconclusive [inhibitor, single point]",–
CCc1nc2ccc(C(=O)NCCCN3CCN(c4ccccc4F)CC3)cc2nc1CC,"inconclusive [inhibitor, partial curve, poor fit]",–
C/C(=N/NC(=O)c1cccs1)c1c(C)[nH]n(-c2nc3ccccc3s2)c1=O,"inconclusive [inhibitor, partial curve, poor fit]",–
O=C(CCCNC(=O)c1ccc(Cl)cc1)OCc1cccc(Br)c1,"inconclusive [inhibitor, single point]",–
O=C(NCCCn1ccnc1)C(=O)NCc1ccc(Cl)cc1,"inconclusive [inhibitor, full curve]",–
O=C(NNc1cc(Cl)ccc1Cl)c1c(F)cccc1Cl,"inconclusive [inhibitor, partial curve, poor fit]",–
CC(C1CC1)N(C(=O)c1ccccc1[N+](=O)[O-])c1ccccc1 (stereo not given),"inconclusive [inhibitor, single point]",–
CC(C)c1ccc(NC(=O)C2CCCN(S(=O)(=O)c3cccnc3)C2)cc1 (stereo not given),"inconclusive [inhibitor, full curve, poor fit]",–

SMILES,Potency,"activity change, negative = inhibition"
O=C(COc1ccc(Cl)cc1Br)N1CCN(S(=O)(=O)c2ccccc2)CC1,"inconclusive [inhibitor, single point]",–
COCc1ccc(-c2c(-c3ccccc3OC)sc3cc4c(cc23)OCO4)cc1,"inconclusive [inhibitor, partial curve, poor fit]",–
CCOc1cccc(-c2cc(-c3n[nH]c(=S)n3CC)c3ccccc3n2)c1,–,inactive: -20.9%
Cc1ccc(CNC(=O)C2(C)CCN2C(=O)Cc2ccc(-c3ccccc3)cc2)cc1 (stereo not given),"inconclusive [inhibitor, partial curve, poor fit]",–
CCCC(NC(=O)CCc1c(C)c2cc3c4c(oc3c(C)c2oc1=O)CCCC4)C(=O)O (stereo not given),–,inactive: 19%
COc1ccc(NC(=O)c2nc[nH]c2C(=O)NCc2ccccc2)cc1,"inconclusive [inhibitor, single point]",–
CN(C(=O)Nc1ccc(Cl)cc1)n1cnc2ccccc2c1=O,"inconclusive [inhibitor, partial curve, poor fit]",–
CC(C)(C)C(=O)OCc1cc(=O)n2nc(C3CCCCC3)sc2n1,"inconclusive [inhibitor, partial curve, poor fit]",–
c1ccc(NN(Cc2ccccn2)c2ccccc2)cc1,"inconclusive [inhibitor, single point]",–
CC(=O)N1CCOc2ccc(S(=O)(=O)N3CC(C)CC(C)C3)cc21 (stereo not given),"inconclusive [inhibitor, partial curve, poor fit]",–
CC(C)(C)OC(=O)NCC(=O)Oc1cc2oc(=O)cc(-c3ccccc3)c2cc1Cl,"inconclusive [inhibitor, single point]",–
CCCCN(C(=O)C1CCCO1)c1c(N)n(CCC)c(=O)[nH]c1=O (stereo not given),–,inactive: 0.438%
COc1ccc(OCCN2CCOCC2)cc1,–,inactive: 8.51%
O=C(CNc1cccc(S(=O)(=O)N2CCCCC2)c1)Nc1cccc(F)c1,"inconclusive [inhibitor, partial curve, poor fit]",–
Nc1cc(OC(=O)c2cccs2)nn1S(=O)(=O)c1ccc(F)cc1,–,inactive: -16.2%
Cc1ccccc1N1C(N)=NC(N)=NC1(C)C,–,inactive: 17%
COc1cccc(S(=O)(=O)NCc2ccc(C(=O)Nc3cccc(Cl)c3)cc2)c1,"inconclusive [inhibitor, partial curve, poor fit]",–
CCS(=O)(=O)c1ncc(Cl)c(C(=O)N(Cc2ccccc2)Cc2ccco2)n1,"inconclusive [inhibitor, partial curve, poor fit]",–
COc1ccccc1-c1noc(-c2ccc(NCCc3ccccc3)c([N+](=O)[O-])c2)n1,–,inactive: 11.7%
c1ccc2c(C[C@@H]3CNCCN3CC3CCCCC3)cccc2c1,"inconclusive [inhibitor, partial curve, poor fit]",–
Cc1nc2c(c(C)nn2-c2ccccc2)c(C)c1CCC(=O)Nc1ccc(CN2CCCC2)cc1,"inconclusive [inhibitor, partial curve, poor fit]",–
CCc1ccc2oc(=O)cc(CN3CCCCC3C)c2c1 (stereo not given),"inconclusive [inhibitor, single point]",–

SMILES,Potency,"activity change, negative = inhibition"
O=C(Cn1cnc2c(NCc3ccccc3)ncnc21)NCc1ccc2c(c1)OCO2,"inconclusive [inhibitor, partial curve]",–
COc1ccc(C(=O)Nc2ccccc2N2CCOCC2)cc1S(=O)(=O)N1CCOCC1,–,inactive: 6.86%
COC(=O)C(=C/C(C)=C/c1cccnc1)C(=O)OC,"inconclusive [inhibitor, single point]",–
O=C(O)COc1ccccc1C=NNC(=O)c1ccc(NS(=O)(=O)c2cccs2)cc1,–,inactive: 2.95%
Clc1cccc(-c2nc3c4ccccc4ccn3c2Cc2ccccc2)c1,"inconclusive [inhibitor, partial curve, poor fit]",–
COc1ccc(C(CC(=O)Nc2ccc(F)cc2)c2ccccc2)cc1 (stereo not given),"inconclusive [inhibitor, single point]",–
O=C(CN1C(=O)C2CCCCC2C1=O)Nc1nc(-c2ccc(F)cc2)cs1 (stereo not given),"inconclusive [inhibitor, single point]",–
N/C(=N\OC(=O)c1ccc(Cl)cc1)c1ccc(Cl)cc1,–,inactive: 6.41%
COc1ccc(NC(=O)c2c(C)oc3ccc(O)c(CN4CCCC(C)C4)c23)cc1Cl (stereo not given),"inconclusive [inhibitor, single point]",–
C=CCn1c(C)cc(C(=O)CSc2nc3ccccc3[nH]2)c1C,–,inactive: 0%
COC(=O)c1cccnc1NC(=S)NC1CCCCC1,–,inactive: 32.4%
CCOc1ccc(CCNC(=O)c2cc(-c3ccccc3)c(N3CCOCC3)s2)cc1,"inconclusive [inhibitor, full curve]",–
CCOC(=O)c1cnc2ccc(Cl)cc2c1NCCN(C)C,"inconclusive [inhibitor, partial curve, poor fit]",–
COc1ccc(CCC(=O)OCC(=O)c2c(N)n(CC(C)C)c(=O)n(C)c2=O)cc1,"inconclusive [inhibitor, partial curve, poor fit]",–
Cc1ccc(O)c(C(=O)c2cnn(C(=O)Cc3csc(C)n3)c2)c1,"inconclusive [inhibitor, full curve, poor fit]",–
c1ccc2oc(C3=NNC(=NC4CC4)SC3)cc2c1,active: 8.91 µM,–
COc1cccc(C2C(=O)N(C3CCCCC3)CC(=O)N2Cc2ccc(Cl)cc2)c1 (stereo not given),"inconclusive [inhibitor, partial curve, poor fit]",–
CCN(CC)S(=O)(=O)c1cccc(NC(=O)C2SC(=Nc3ccc(C)cc3C)C(C(=O)NC(C)COC)=C2N)c1 (stereo not given),"inconclusive [inhibitor, partial curve, poor fit]",–
CC(=O)Nc1ccc(NS(=O)(=O)c2ccccc2)cc1,–,inactive: 8.36%
O=C(Nc1ccc(S(=O)(=O)NCc2cccnc2)cc1)c1ccccc1Cl,–,inactive: 26.1%
COc1ccc(S(=O)(=O)NCCC(=O)Nc2ccc(C)cc2)cc1,"inconclusive [inhibitor, partial curve, poor fit]",–
